Source: PubChem BioAssay (NCI)
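Values below derive from 48-hour exposures of cells grown in 96-well plates, with endpoints linearly interpolated between the two concentrations bracketing the appropriate inhibition level. GI50 = concentration required for 50% inhibition of growth.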 The source holds more than one record for some entries. They are shown here; other results are not. An entry can have further records. A record mostly stands for its own series of concentrations, not given here; a value can be the end of its range.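 The concentration for full growth arrest is given as TGI.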

Assays:
Assay in all cases: DTP human tumour cell line panel, 48 h
SNB-75 CNS = test system: SNB-75 CNS
HL-60(TB) leukemia = test system: HL-60(TB) leukemia
SNB-19 CNS = test system: SNB-19 CNS
A498 renal = test system: A498 renal
HCC-2998 colon = test system: HCC-2998 colon
HCT-116 colon = test system: HCT-116 colon
HCT-15 colon = test system: HCT-15 colon
HS 578T breast = test system: HS 578T breast
HT29 colon = test system: HT29 colon
K-562 leukemia = test system: K-562 leukemia
NCI-H460 lung = test system: NCI-H460 lung
OVCAR-3 ovarian = test system: OVCAR-3 ovarian
SF-295 CNS = test system: SF-295 CNS
SK-MEL-2 melanoma = test system: SK-MEL-2 melanoma
SK-MEL-5 melanoma = test system: SK-MEL-5 melanoma
SK-OV-3 ovarian = test system: SK-OV-3 ovarian

In the case of `COc1cc(/C=C(\C#N)C(N)=O)cc(Br)c1O`, the GI50 (SNB-75 CNS) is reported as 936 nM and > 100 µM.

With `COc1cccc2c1C(=O)c1c(O)c3c(c(O)c1C2=O)C[C@@](O)(C(C)=O)C[C@@H]3OC1OC(C)C(O)C(N)C1Br` (some centres not stated) the TGI (HL-60(TB) leukemia) was 657 nM and 53 nM, the TGI (SNB-19 CNS) was 2.92 µM and 201 nM and the TGI (SNB-75 CNS) was 106 nM and 1.15 µM.

In the case of `COc1cc2c(c(OC)c1OC)-c1ccc(OC)c(=O)cc1[C@@H](NC(=O)c1ccccc1)CC2`, the TGI (A498 renal) is reported as 30 µM and 2.69 µM, the TGI (HCC-2998 colon) is reported as 9.81 nM and 763 nM and the TGI (HCT-116 colon) is reported as 60.4 nM and 2.31 µM. The TGI (HCT-15 colon) was 211 nM and > 100 µM, the TGI (HS 578T breast) was < 3 nM and 1.09 µM and the TGI (HT29 colon) was 20.8 nM and 855 nM. For the same molecule, the TGI (K-562 leukemia) was 3.43 µM and > 100 µM, the TGI (NCI-H460 lung) was 45.2 nM [1 test] and 14 µM [mean of 5 tests] and the TGI (OVCAR-3 ovarian) was < 3 nM and 42.7 nM. For the same molecule, the TGI (SF-295 CNS) was 15.9 nM and 705 nM, the TGI (SK-MEL-2 melanoma) was 6.35 nM and 6.65 µM and the TGI (SK-MEL-5 melanoma) was 15.2 nM and 672 nM. The TGI (SK-OV-3 ovarian) was 24.3 nM and 2.72 µM.
